# Results published in PubChem BioAssay AID445 (National Center for Advancing Translational Sciences (NCATS), 2006).
# Hit rate of the full screen: of about 110,000 compounds, about 40 (0.04%) were called active. This list was built around the results that the source calls inconclusive (neither active nor inactive); the mix of calls is not that of the screen. Calls follow the shape of the dose curve; as a rule, active = well fitted curve in the direction sought with a large enough effect in the signal ratio (not every such curve was filed as active); inconclusive = small, poorly fitted or top-dose-only effect, or a change in a side signal; inactive = flat fitted curve, though single readings scatter; the % refers to the signal ratio. A potency beside an inconclusive call is a rough fit, not a confirmed value.
# Assay: IkB Signaling;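 as to IkBa stabilization activation: 0% = basal untreated cells and 100% = reference inhibitor full response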
# Conditions: ABC-DLBCL IkBa-CBG/CBR dual luciferase ratio (green luciferase fused to IkBa over red control in OCI-Ly3 lymphoma cells), 4 h; IkBa stabilization activation: at 57.1 µM (top of the series), scaled: untreated 0%, proteasome inhibitor 100% unless noted
# Summary of the method: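 Curves were fitted separately to fusion (green), unfused (red) and ratio luminescence, then classed by r2, magnitude and activity. Cells: OCI-Ly3, 4 h compound plus doxycycline at 37C; 10 uM MG-132 defined full response.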
# Potency is read from the fitted curve at half-maximal effect.
Compound,IkBa stabilization activation,Potency
Cn1nc(-c2ccc(N3CCCCC3)c(NC(=O)c3ccco3)c2)c2ccccc2c1=O,inactive: -0.152%,–
CC(C)Cn1cc(NC(=O)NCc2ccc(Cl)cc2)c2ccccc2c1=O,inconclusive: 0.68% [signal inhibitor],–
COc1ccc(C2c3c(n(C)c4ccccc34)C(=O)N2CC(=O)Nc2c(C)cc(C)cc2C)cc1 (centres undefined),inconclusive: 0.784% [signal inhibitor],–
Cc1ccc(-c2csc(N(CCCN3CCOCC3)C(=O)c3ccco3)n2)cc1,inconclusive: 3.17% [signal inhibitor],–
CCOc1ccccc1CNC(=O)C(CC)n1nc(C)c2c(C)n(-c3ccccc3)nc2c1=O (centres undefined),inconclusive: -0.275% [signal inhibitor],–
Cc1c(C(=O)NCc2ccccc2Cl)sc2nc3n(c(=O)c12)CCCC3,inconclusive: 5.13% [signal inhibitor],–
CCOC(=O)N1CCC(NC(=O)c2ccc3c(c2)N(Cc2ccccc2)C(=O)c2ccccc2S3(=O)=O)CC1,inconclusive: -0.288% [signal inhibitor],–
Cc1ccc2c(c1)C(=O)OC(C(=O)Nc1ccc(C(=O)O)cc1)C2 (centres undefined),–,"inconclusive: 20 µM [signal inhibitor, partial curve]"
O=C(Nc1ccc(Cl)cc1)c1ccc2oc(=O)n(Cc3ccccc3)c2c1,inconclusive: 0.226% [signal inhibitor],–
Cc1cc2oc(=O)cc(CN3CCCCC3C)c2c(C)c1Cl (centres undefined),inactive: 0.41%,–
Cc1cccc(-n2c(=O)[nH]c3c(C(N)=O)nc(C(C)C)nc32)c1,inactive: -1.49%,–
COc1ccc(C(=O)CN2CCN(S(=O)(=O)c3ccc(F)cc3)CC2)cc1,inconclusive: -0.531% [signal inhibitor],–
O=C(Cn1cnc2nc3c(cc2c1=O)CCCC3)N1CCN(c2cccc(C(F)(F)F)c2)CC1,inconclusive: 2.03% [signal inhibitor],–
CN(C)c1ncc2nc(-c3ccccc3)c(=O)n(CCc3ccccc3)c2n1,"inactive: -3.82% [at 11.4 µM, scaled: untreated 0%, proteasome inhibitor 100%]",–
CCC(=O)N1c2ccccc2CC1C(=O)N1CCN(c2cccc(OC)c2)CC1 (centres undefined),inconclusive: 2.33% [signal inhibitor],–
CC(=O)c1ccc(S(=O)(=O)Nc2ccc(-c3ccc(N4CCCCC4)nn3)cc2)cc1,inconclusive: 2.57% [signal inhibitor],–
COc1cc(-c2nnc(COc3ccc4cc(Br)ccc4c3)o2)cc(OC)c1OC,inactive: 1.35%,–

Compound,IkBa stabilization activation,Potency
O=C(CSc1nc2ccccc2[nH]1)N1CCN(c2ccc(F)cc2)CC1,inactive: 10.7%,–
Cc1cccc(NC(=O)CC2Nc3cccc4cccc(c34)NC2=O)c1 (centres undefined),inconclusive: 18.4% [signal inhibitor],–
Cc1cccc(NC(=O)CSc2nc(-c3cccc(C)c3)nc3c2Cc2c(CO)cnc(C)c2O3)c1,inconclusive: 7.1% [signal inhibitor],–
Cc1ccc2c(CC(=O)Nc3cccc(C(F)(F)F)c3)coc2c1,inconclusive: -5.15% [signal inhibitor],–
CCOC(=O)COc1ccc(/C=C(\C#N)c2nc3ccc(C)cc3[nH]2)cc1OC,inconclusive: -4.31% [signal inhibitor],–
CCCCOc1ccc(C(=O)Nc2cc(-c3ccc(C)cc3)no2)cc1,inconclusive: -3.59% [signal inhibitor],–
CCOC(=O)c1sc(N2C(=O)c3oc4ccccc4c(=O)c3C2c2ccc(C(C)(C)C)cc2)nc1C (centres undefined),inconclusive: 6.36% [signal inhibitor],–
CCC1CCCCN1Cc1c(O)ccc2c(=O)c(Oc3ccccc3Cl)c(C(F)(F)F)oc12 (centres undefined),inactive: 6.03%,–
Cc1oc2ncn(CC(C)C)c(=O)c2c1C(=O)NCCc1ccc(Cl)cc1,inconclusive: 1.43% [signal inhibitor],–
NC(=O)c1cc(-c2ccccc2)nc(N2CCOCC2)n1,inconclusive: 6.61% [signal inhibitor],–
O=C(COC(=O)c1ccco1)NCc1ccco1,inconclusive: 6.96% [signal inhibitor],–
Cc1ccc(CNC(=O)c2ccc3c(c2)CCN3S(=O)(=O)c2ccccc2)cc1,inconclusive: 0.809% [signal inhibitor],–
COc1ccc(NC(=O)C2CCN(S(=O)(=O)c3cn(C)cn3)CC2)cc1Cl,inactive: 1%,–
CCOc1ccccc1NC(=O)C1CCCN(c2ncnc3onc(-c4ccc(F)cc4)c23)C1 (centres undefined),inconclusive: 2.12% [signal inhibitor],–
O=C(CSCc1cnn(-c2ccccc2)c1-n1cccc1)NCc1ccc2c(c1)OCO2,inconclusive: 3.63% [signal inhibitor],–
NC(=O)CN1C(=O)C2(SCC(=O)N2c2cccc(F)c2)c2ccccc21 (centres undefined),inactive: -0.131%,–
COc1ccc(S(=O)(=O)N(CC(=O)N2CCN(c3ccccc3OC)CC2)c2ccccc2)cc1,inconclusive: -1.3% [signal inhibitor],–
